# Measurements taken from PubChem BioAssay AID743279 (National Center for Advancing Translational Sciences (NCATS), 2014).
# The whole screen tested about 360,000 compounds, of which about 17,000 (4.7%) were called active. The inconclusive results got no clear call from the source; some entries with a clear call stand among them for comparison. No stated cut-off is given here; in the data, active means activity change below about -50%; inconclusive means mostly about -30% to -49%; inactive means weaker than that.
# Assay: qHTS for Inhibitors of Inflammasome Signaling: IL-1-beta AlphaLISA Primary Screen
# Settings: THP-1 LPS/ATP IL-1B secretion, 16 h; at 57.5 µM, active compounds read low
# Outline: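 THP-1 cells pretreated 1 hr with compounds (up to 57.5 uM final), then stimulated with LPS (250 ng/mL final) plus ATP (1.25 mM final); secreted IL-1B measured by AlphaLISA after 16 hr, decreased signal indicating inhibition.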
# On the % scale 0 is the no-effect control and ±100 the full control effect.
row,SMILES,activity change
1,c1cc2cc(CNc3nc(NCC4CC4)nc4ccsc34)ccc2o1,active: -78.1%
2,CCN(CC)S(=O)(=O)c1ccc(C(=O)Nc2cc(C)cc(C)c2)cc1,inconclusive: -43.3%
3,CCCN(C(=O)CSc1nnc(-c2ccoc2C)n1N)C1CCS(=O)(=O)C1 (stereo not drawn),inactive: 6.19%
4,COc1cc(C)nc(N(Cc2ccccc2)S(=O)(=O)c2ccc(C)cc2)n1,inconclusive: -32.1%
5,CC1=C(c2ccc(Cl)cc2)[N+](=O)C(C)(C)N1[O-],inactive: -3%
6,CCC(=O)N1CCN(c2cc(N3CCCC3)c(F)cc2[N+](=O)[O-])CC1,inconclusive: -34.1%
7,CN1OC[C@@H]2CN(Cc3cc(Cl)cc(Cl)c3)[C@H](c3cccc(Oc4ccccc4)c3)C[C@@H]21,inconclusive: -36%
8,O=C(Nc1cc(Cl)ccc1F)c1ccc(-n2cncn2)c([N+](=O)[O-])c1,inconclusive: -42%
9,CCN(CC)C(=O)c1ccc(Nc2nnc(-c3ccc(O)cc3)c3ccccc23)cc1,inconclusive: -47.4%
10,CCCCn1c2nc3ccccc3nc2c2c(=O)n(C(C)CC)cnc21 (stereo not drawn),inconclusive: -38.1%
11,COc1ccc(CCNC(=O)CCSc2nc(-c3ccco3)cc(C(F)(F)F)n2)cc1OC,inconclusive: -30%
12,CCOC(=O)c1nnc(-c2ccc(C)cc2)nc1Sc1ccccc1Cl,active: -96.5%
13,O=C(CN1C(=O)CSC1=O)Nc1ccccc1N1CCOCC1,inactive: 11.2%
14,CC(=O)c1c(C)[nH]c(C(=O)Nc2ccc3c(c2)OCCO3)c1C,inconclusive: -37.4%
15,COc1ccc(-c2csc(Nc3ncccc3C)n2)cc1OC,inconclusive: -46%
16,Cc1ccc(OCC(O)Cn2nc(C)cc2C)cc1 (stereo not drawn),inconclusive: -31.4%
17,CCCn1c(N)c(C(c2ccc(OC)cc2)N2CCN(c3ccccc3)CC2)c(=O)[nH]c1=O (stereo not drawn),inconclusive: -31.8%
18,COc1cccc(-c2nnc(SCc3ccc(C#N)cc3)n2Cc2ccco2)c1,inconclusive: -43.7%
19,Cc1c(C(=O)NCc2cccc([N+](=O)[O-])c2)sc(=O)n1Cc1ccccc1F,inconclusive: -44.3%
20,O=C(COc1ccc2c3c(c(=O)oc2c1)CCC3)NCCCN1CCCC1=O,inconclusive: -35.1%
21,Cc1cc(F)cc(-c2cc(C(=O)NCc3ccco3)[nH]n2)c1,inconclusive: -34.7%

row,SMILES,activity change
1,COc1ccc(/C=N/NC(=O)CCCOc2ccc(Cl)cc2Cl)cc1,inactive: -19.1%
2,COc1cc2c(cc1NC(=O)C(C)Sc1ccc(NC(C)=O)cc1)oc1ccccc12 (stereo not drawn),inconclusive: -45.7%
3,CCCNc1nc2ccccc2c(=O)[nH]1,active: -69.1%
4,COc1cccc(NC2=C(Cl)C(=O)OC2OC(=O)c2ccco2)c1 (stereo not drawn),inconclusive: -45%
5,Cc1ccccc1Nc1cc(C(=O)NCc2ccco2)c2ccccc2n1,inconclusive: -36.8%
6,Cc1cc(C)c(N(CC(=O)NCc2ccccc2)C(=O)c2csnn2)c(C)c1,inactive: -6.99%
7,Cc1ccc(C(=O)COc2ccccc2N2C(=O)c3ccccc3C2=O)cc1,inactive: 22.4%
8,OC[C@@H]1CN(C2CCCC2)C[C@H](n2cnc3c(NC4CCC4)ncnc32)O1,inactive: 5.5%
9,Cc1onc(-c2ccccc2)c1C(=O)N/N=C/c1ccccc1OC(C)C,inconclusive: -43.5%
10,Nc1nnnn1/N=C\c1ccc(Cl)c([N+](=O)[O-])c1,active: -61.5%
11,COc1ccc(C2c3ccc(O)cc3Oc3ncn(Cc4ccco4)c(=N)c32)cc1 (stereo not drawn),inconclusive: -33.9%
12,CCCCc1ccc(NC(=S)N2CCN(C(=O)c3ccco3)CC2)cc1,inconclusive: -41.6%
13,CC(=O)[C@@]1(O)C(C)CC2C3C=C(C)C4=Cc5c(cnn5-c5ccccc5)C[C@]4(C)C3C(O)C[C@@]21C (stereo partly drawn),active: -90.6%
14,CCN1C(=O)C(CC(=O)Nc2ccccc2Cl)N(NC(=O)c2cccc(F)c2)C1=S (stereo not drawn),inactive: 6.92%
15,Cc1cccc(C)c1N1CCN(C(c2cc3ccccc3o2)c2nnnn2C(C)(C)C)CC1 (stereo not drawn),inactive: 9.35%
16,CCOc1ccc(NC2=CC(=O)C(=O)c3ccccc32)cc1,active: -54.7%
17,Cc1[nH]c2ccc(C(=O)OC(C)C(=O)NC3CCCCC3C)cc2c1C (stereo not drawn),inactive: 20.9%
18,COc1ccc(OC)c(-n2c(-c3cccc(S(=O)(=O)N(C)C)c3)n[nH]c2=S)c1,inactive: 24%
19,OCCCn1c(C(CO)Nc2nc(-c3ccc(Cl)cc3)cs2)nc2ccccc21 (stereo not drawn),inconclusive: -37.7%
20,NC(=O)CSc1ncnc2c1nnn2Cc1ccc(F)cc1,active: -96.2%
21,COc1ccc2sc(-c3ccccc3OC)c(-c3ccc(OCCN(C)C)cc3)c2c1,inconclusive: -34%

row,SMILES,activity change
1,CC(C)NC(=O)c1onc(CSc2ccc(Cl)cc2)c1C(=O)NC(C)C,inconclusive: -31.4%
2,COC(=O)Cn1cnc2c(cnn2-c2ccccc2)c1=O,inconclusive: -34.3%
3,c1ccc(CCNc2ncnc3c2cnn3-c2ccccc2)cc1,inconclusive: -36.6%
4,COc1cc(NC(=O)C2(C)CCCN(C(C)C)C2)cc(OC)c1OC (stereo not drawn),inactive: 19.2%
5,Cc1ccc(C)c(-c2nn(-c3cc(N4CCN(CCO)CC4)ccc3[N+](=O)[O-])c(=O)c3ccccc23)c1,inconclusive: -41.6%
6,C[C@H](CO)N1C[C@H](C)[C@@H](CN(C)Cc2ccc(-c3ccccc3)cc2)Oc2c(NS(=O)(=O)c3ccccc3)cccc2C1=O,inconclusive: -31.6%
7,CC1C(=O)Nc2ccccc2N1C(=O)c1ccc(F)cc1F (stereo not drawn),inactive: 10.1%
8,COc1ccc(CC(=O)Nc2ccc(S(=O)(=O)N3CCOCC3)cc2)cc1,inactive: -0.657%
9,Nn1cc(-c2ccccc2)nc1SCC(=O)NCCc1ccccc1,inconclusive: -38.8%
10,COc1ccccc1NCC(=O)N/N=C/c1c(O)ccc2ccccc12,inactive: 171%
11,CCn1cc(C(=O)NCc2ccco2)c(=O)c2cc(S(=O)(=O)N3CC(C)CC(C)C3)ccc21 (stereo not drawn),inconclusive: -45.3%
12,O=C(c1cc2cc(F)ccc2[nH]1)N1CCN(Cc2ccc3c(c2)OCO3)CC1,inactive: -10.1%
13,Cc1oc(-c2ccccc2Cl)nc1CS(=O)CC(=O)NCCCN1CC(C)CC(C)C1 (stereo not drawn),inconclusive: -40%
14,COc1ccc(S(=O)(=O)Nc2ccc3c(c2)C(=O)N([C@H](C)CO)C[C@@H](C)[C@@H](CN(C)S(=O)(=O)c2ccc(Cl)cc2)O3)cc1,inconclusive: -31%
15,C=CC(=O)NN(C)c1ncc(C(F)(F)F)cc1Cl,inconclusive: -44.1%
16,O=C(CCn1nc(-c2ccc(Cl)cc2)ccc1=O)N1CCN(c2ccc(F)cc2)CC1,inconclusive: -32%
17,N#C/C(=C/c1cccs1)c1ccccn1,inactive: 0%
18,O=C(c1ccc(OC2CCN(Cc3ccccc3OC(F)F)CC2)cc1)N1CCCC1,inconclusive: -34.1%
19,Cc1ccccc1-n1c(SCc2c(C)noc2C)nnc1-c1c[nH]c2ccccc12,inconclusive: -40.9%
20,CC1CN(CC(=O)Nc2ccc(S(N)(=O)=O)cc2)CC(C)O1 (stereo not drawn),inactive: 1.66%
21,O=C(NC(c1ccc(F)cc1)c1ccc2ccccc2n1)C1CCN(CCOc2ccc(F)cc2)CC1 (stereo not drawn),inconclusive: -35.7%

row,SMILES,activity change
1,C=CCn1cc(C(=O)NCC2CCCO2)c(=O)c2cc(S(=O)(=O)N3CCCCCC3)ccc21 (stereo not drawn),inconclusive: -33.6%
2,O=C(c1ccccc1)c1ccccc1N/C=C/c1nnnn1-c1ccccc1,inconclusive: -33%
3,O=C(COc1ccc(F)cc1)N(Cc1cccc(Br)c1)C1CCS(=O)(=O)C1 (stereo not drawn),inactive: 0%
4,O=C(CN1CCN(S(=O)(=O)c2ccc(Cl)cc2)CC1)Nc1ccc2c(c1)CCC2,inconclusive: -30.8%
5,CCCCn1c(N)c(N(CC(C)C)C(=O)C2CCN(S(=O)(=O)c3ccc(OCC)cc3)CC2)c(=O)[nH]c1=O,inconclusive: -38.7%
6,CCCCN(CCCC)CCCNC(=O)C12CN(Cc3ccccc3)CC1C(c1cccc([N+](=O)[O-])c1)=NO2 (stereo not drawn),inconclusive: -47.7%
7,C=CC[C@@H](CC(=O)N(CCO)Cc1ccccc1)C(=O)N[C@H](COC(=O)[C@@H](CC=C)Cc1ccc(F)cc1)C(C)(C)C,active: -83%
8,O=C(/C=C/c1ccc(Cl)cc1Cl)NCCSCc1ccccc1,active: -95.5%
9,CC(=O)CC1(OC(C)=O)C(=O)N(C)c2ccccc21 (stereo not drawn),inconclusive: -42.3%
10,CC1(C(=O)NS(=O)(=O)c2ccc(Cl)cc2)CCN1C(=O)CCC1CCCC1 (stereo not drawn),inactive: 32.8%
11,CC1Cc2ccccc2N1C(=O)CSc1nnc2c(n1)[nH]c1ccc(F)cc12 (stereo not drawn),inconclusive: -40.7%
12,CC(=O)C1=CCC(c2ccc(Br)cc2)N(S(=O)(=O)c2ccc(C)cc2)C1 (stereo not drawn),active: -52%
13,COc1ccccc1NC(=O)COC(=O)C1CCN(/C=C/C(=O)C(F)(F)F)CC1,inconclusive: -30.2%
14,O=C(NC1=C(NC2CCS(=O)(=O)C2)C(=O)c2ccccc2C1=O)c1ccccc1 (stereo not drawn),active: -92.9%
15,N=C1/C(=C\c2ccc(-c3ccc(C(=O)O)cc3)o2)C(=O)N=C2SC=C(c3ccccc3)N12,inconclusive: -42.7%
16,O=C(NCC(c1ccco1)N1CCCCC1)C(c1ccccc1)c1ccccc1 (stereo not drawn),inconclusive: -38.9%
17,Cc1cc(=O)[nH]c(NN=Cc2cc(Br)ccc2O)n1,inconclusive: -38.9%
18,CN(C)Cc1cc(OCc2ccccc2)cc(CN(C)C)c1O,inconclusive: -45.3%
19,O=C(Nc1cc(N2CCOCC2)ncn1)NC1(C(F)(F)F)Oc2ccccc2O1,inactive: 28.3%
20,COc1cc(CNC(C)C23CC4CC(CC(C4)C2)C3)ccc1OCC(=O)NC(C)(C)C (stereo not drawn),active: -88%
